# Measured values reported in PubChem BioAssay (Tox21).
# “And” between values parts separate entries of the source, which are not always exact repeats. Identical values can stand only once. The inconclusive results got no clear call from the source; some entries with a clear call stand among them for comparison. For some assays here: Potencies of inconclusive entries are doubtful fits and often do not repeat. Some structures have more than one record in an assay (separate samples or runs), and their calls can disagree. The source made the active and inactive calls. Unless noted, calls come from the whole dose curve; as a rule, active = well fitted curve in the direction sought with a large enough effect in the repeat runs; inconclusive = weak or mixed curves; inactive = no such curve, though single readings can be large; an effect the other way counts as inactive or inconclusive.
# Columns and labels:
# [1] = qHTS assay to identify small molecule agonists of H2AX - cell viability counter screen (AID 1224847; calls by dose curve; note: nearly all actives have a fitted effect of over 30% in size; note: potency is the fitted concentration of half-maximal effect); conditions: CHO-K1 viability, CellTiter-Glo luminescence, 3 h; series mostly up to 154 µM
# Procedure, shortened: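 Cytotoxicity counter screen in wild-type CHO-K1 cells: a 3 hr compound treatment at 37C across 15 concentrations, followed by CellTiter-Glo luminescence to gauge viable cells.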
# [2] = qHTS RealTime-Glo MT Cell Viability Assay in HepG2 cells - 24 hour (AID 1224867); conditions: RealTime-Glo luminescence; series mostly up to 76.8 µM; note: potency is the fitted concentration of half-maximal effect; nearly all actives have a fitted effect of over 50% in size
# Procedure, shortened: (§1)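 Real-time, nonlytic viability: 600 HepG2 cells/well mixed with NanoLuc enzyme plus prosubstrate; 5 h settle, compound (DMSO) added by pintool; luminescence monitored over 40 h at 37 C.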
# [3] = qHTS RealTime-Glo MT Cell Viability Assay in HEK293 cells - 32 hour (AID 1224868); conditions: RealTime-Glo luminescence; series mostly up to 76.8 µM; note: potency is the fitted concentration of half-maximal effect; nearly all actives have a fitted effect of over 50% in size
# Procedure, shortened: (§2)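 Cells + reagent dispensed (600 cells/well, HEK293) → 5 h at 37 C/5% CO2 → 23 nL compound in DMSO pinned → 40 h at 37 C → luminescence read at 0, 8, 16, 24, 32, 40 h.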
# [4] = A CellTox Green Cytotoxicity Assay to monitor cytotoxicity in HEK293 cells - 40 hour (AID 1224871); conditions: CellTox Green fluorescence; series mostly up to 76.8 µM; note: potency is the fitted concentration of half-maximal effect; nearly all actives have a fitted effect of over 45% in size
# Procedure, shortened: (§3)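 Cytotoxicity was tracked continuously in HEK293 cells by a DNA-binding dye excluded from viable cells. Compounds were transferred in DMSO 5 h after seeding; fluorescence was recorded at intervals up to 40 h.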
# [5] = qHTS RealTime-Glo MT Cell Viability Assay in HEK293 cells - 16 hour (AID 1224872); conditions: RealTime-Glo luminescence; series mostly up to 76.8 µM; note: nearly all actives have a fitted effect of over 50% in size; note: potency is the fitted concentration of half-maximal effect
# Procedure, shortened: as §2
# [6] = qHTS RealTime-Glo MT Cell Viability Assay in HepG2 cells - 8 hour (AID 1224873); conditions: RealTime-Glo luminescence; series mostly up to 76.8 µM; note: potency is the fitted concentration of half-maximal effect; nearly all actives have a fitted effect of over 55% in size
# Procedure, shortened: (§4)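 Real-time viability: cells seeded at 600 per well together with NanoLuc and cell-permeant prosubstrate, compounds added after 5 h incubation. Luminescence tracked at 0, 8, 16, 24, 32 and 40 h of exposure.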
# [7] = A CellTox Green Cytotoxicity Assay to monitor cytotoxicity in HEK293 cells - 24 hour (AID 1224875); conditions: CellTox Green fluorescence; series mostly up to 76.8 µM; note: nearly all actives have a fitted effect of over 45% in size; note: potency is the fitted concentration of half-maximal effect; for activity change: % is set by controls: 0 for no effect and ±100 for the full control effect
# Procedure, shortened: as §3
# [8] = A CellTox Green Cytotoxicity Assay to monitor cytotoxicity in HepG2 cells - 16 hour (AID 1224876); conditions: CellTox Green fluorescence; series mostly up to 76.8 µM; note: nearly all actives have a fitted effect of over 45% in size; note: potency is the fitted concentration of half-maximal effect
# Procedure, shortened: (§5)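 Real-time, homogeneous cytotoxicity readout: dead-cell DNA staining by CellTox Green in HepG2 monolayers, fluorescence measured at timed intervals up to 40 h of continuous compound exposure.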
# [9] = qHTS RealTime-Glo MT Cell Viability Assay in HepG2 cells - 32 hour (AID 1224877); conditions: RealTime-Glo luminescence; series mostly up to 76.8 µM; note: potency is the fitted concentration of half-maximal effect; nearly all actives have a fitted effect of over 55% in size
# Procedure, shortened: as §1
# [10] = A CellTox Green Cytotoxicity Assay to monitor cytotoxicity in HEK293 cells - 32 hour (AID 1224881); conditions: CellTox Green fluorescence; series mostly up to 76.8 µM; note: nearly all actives have a fitted effect of over 40% in size; note: potency is the fitted concentration of half-maximal effect
# Procedure, shortened: as §3
# [11] = qHTS assay to identify small molecule antagonists of the estrogen related receptor (ERR) signaling pathway from Tox21 library (AID 1224848); conditions: ERR reporter cell line, luciferase antagonist mode, 18 h; series mostly up to 92.4 µM; note: nearly all actives have a fitted effect of over 50% in size; note: potency is the fitted concentration of half-maximal effect
# Procedure, shortened: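 Antagonist-mode screen of the Tox21 10K library in an NTP-provided ERR reporter cell line; 18 h compound exposure at 37 C, luminescence measured with ONE-Glo.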
# [12] = qHTS RealTime-Glo MT Cell Viability Assay in HEK293 cells - 0 hour (AID 1224880); conditions: RealTime-Glo luminescence; series mostly up to 76.8 µM; note: potency is the fitted concentration of half-maximal effect; nearly all actives have a fitted effect of over 45% in size
# Procedure, shortened: (§6)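 Nonlytic bioluminescent viability monitoring. HEK293 at 600 cells/well with reagent; 5 h settle; compound transfer by pintool; plates held at 37 C and read at set time points.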
# [13] = qHTS assay to identify small molecule agonists of the estrogen related receptor (ERR) signaling pathway from Tox21 library (AID 1224849; calls by dose curve; note: % is set by controls: 0 for no effect and ±100 for the full control effect; nearly all actives have a fitted effect of over 15% in size); conditions: ERR reporter cell line, ONE-Glo luciferase, 18 h; at 92.4 µM (top of the series) unless noted
# Procedure, shortened: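 Agonist signal is luciferase luminescence from an ERR reporter cell line treated 18 h at 37 C with DMSO-dissolved compounds, read 30 min after ONE-Glo addition at room temperature.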
# [14] = A CellTox Green Cytotoxicity Assay to monitor cytotoxicity in HepG2 cells - 40 hour (AID 1224879); conditions: CellTox Green fluorescence; series mostly up to 76.8 µM; note: nearly all actives have a fitted effect of over 40% in size; note: potency is the fitted concentration of half-maximal effect
# Procedure, shortened: as §5
# [15] = qHTS RealTime-Glo MT Cell Viability Assay in HEK293 cells - 40 hour (AID 1224874); conditions: RealTime-Glo luminescence; max response: stronger effect = lower value; note: nearly all actives have a fitted effect of over 50% in size; note: potency is the fitted concentration of half-maximal effect; for max response: % is set by controls: 0 for no effect and ±100 for the full control effect
# Procedure, shortened: as §6
# [16] = A CellTox Green Cytotoxicity Assay to monitor cytotoxicity in HepG2 cells - 24 hour (AID 1224878); conditions: CellTox Green fluorescence; series mostly up to 76.8 µM
# Procedure, shortened: as §5
# [17] = A CellTox Green Cytotoxicity Assay to monitor cytotoxicity in HepG2 cells - 0 hour (AID 1224882); conditions: CellTox Green fluorescence; series mostly up to 76.8 µM; note: potency is the fitted concentration of half-maximal effect; nearly all actives have a fitted effect of over 35% in size
# Procedure, shortened: as §5
# [18] = qHTS RealTime-Glo MT Cell Viability Assay in HepG2 cells - 40 hour (AID 1224870); conditions: RealTime-Glo luminescence; series mostly up to 76.8 µM
# Procedure, shortened: as §4
# Tags give direction and shape of the fitted curve.
structure (smiles),measurement,setting,value
Fc1ccc(C(c2ccc(F)cc2)N2CCN(C/C=C/c3ccccc3)CC2)cc1,Potency,[1],"inconclusive: 27.7 µM [cytotoxic, partial curve]"
same,Potency,[2],"inconclusive: 23.9 µM [falling, partial curve, poor fit]"
same,Potency,[3],active: 21.3 µM
same,Potency,[4],"inconclusive: 5.35 µM [activator, full curve, poor fit]"
same,Potency,[5],"inconclusive: 7.56 µM [cytotoxic, partial curve]"
same,Potency,[6],"inconclusive: 23.9 µM [falling, partial curve, poor fit]"
same,Potency,[7],inactive
same,Potency,[8],inactive
same,Potency,[9],"inconclusive: 16.9 µM [cytotoxic, partial curve]"
same,Potency,[10],"inconclusive: 10.7 µM [activator, single point]"
Cc1cc(O)ccc1N,Potency,[1],"inconclusive: 57 µM [cytotoxic, partial curve]"
same,Potency,[11],"inconclusive: 15.4 µM [inhibitor, full curve]"
same,Potency,[4],active: 34.9 µM
same,Potency,[6],"inconclusive: 62 µM [falling, partial curve, poor fit]"
same,Potency,[7],active: 34.9 µM
same,Potency,[12],active: 12.4 µM
Cc1cc(C)c(S(=O)(=O)O)cc1N=Nc1cc(S(=O)(=O)O)c2ccccc2c1O,Potency,[1],"inconclusive: 56.6 µM [cytotoxic, partial curve]"
same,Potency,[3],"inconclusive: 21.9 µM [cytotoxic, partial curve]"
same,Potency,[5],"inconclusive: 24.5 µM [cytotoxic, partial curve]"
O=C(O)c1ccc(O)cc1,Potency,[1],inactive
same,"activity change, positive = activation",[13],inconclusive: 16.1%
same,Potency,[5],inactive
O=c1[nH]c(=O)n([C@H]2C[C@H](O)[C@@H](CO)O2)cc1F,Potency,[1],"inconclusive: 9.82 µM [cytotoxic, full curve]"
same,Potency,[3],"inconclusive: 1.2 µM [cytotoxic, full curve]"
Cc1nccn1-c1ccc(Sc2cccc(C3(C(N)=O)CCOCC3)c2)cc1,Potency,[1],"inconclusive: 12.7 µM [cytotoxic, partial curve]"
same,Potency,[2],"inconclusive: 43.6 µM [falling, partial curve, poor fit]"
same,Potency,[5],active: 1.38 µM
same,Potency,[7],inactive
same,Potency,[14],"inconclusive: 49 µM [activator, single point]"
Cn1sccc1=O,Potency,[1],"inconclusive: 127 µM [rising, single point]"
same,Potency,[11],"inconclusive: 86.3 µM [inhibitor, single point]"
same,Potency,[3],"inconclusive: 61.6 µM [cytotoxic, single point]"
same,Potency,[4],"inconclusive: 54.9 µM [activator, single point]"
same,Potency,[15],"inconclusive: 61.6 µM [cytotoxic, single point] and inconclusive: 54.9 µM [cytotoxic, single point]"
same,Potency,[16],"inconclusive: 61.6 µM [activator, single point]"
same,Potency,[14],"inconclusive: 61.6 µM [activator, single point]"
CC1=Nc2ccc3ccccc3c2C1(C)C,Potency,[1],"inconclusive: 127 µM [cytotoxic, single point]"
same,Potency,[11],inconclusive: 61.1 µM [inhibitor]
same,Potency,[5],"inconclusive: 43.6 µM [cytotoxic, partial curve]"
same,Potency,[8],"inconclusive: 61.6 µM [activator, single point]"
same,Potency,[16],"inconclusive: 54.9 µM [activator, single point]"
same,Potency,[14],"inconclusive: 54.9 µM [activator, single point]"
CC(C)[N+](C)(CCOC(=O)C1c2ccccc2Oc2ccccc21)C(C)C,Potency,[1],"inconclusive: 1.6 µM [cytotoxic, single point]"
same,Potency,[3],"inconclusive: 34.7 µM [cytotoxic, partial curve, poor fit]"
same,Potency,[5],"inconclusive: 30.9 µM [cytotoxic, partial curve, poor fit]"
CC(=O)[C@H]1[C@H](C#N)C[C@H]2[C@@H]3CC=C4C[C@@H](O)CC[C@]4(C)[C@H]3CC[C@@]21C,Potency,[1],"inconclusive: 68.7 µM [cytotoxic, single point]"
same,Potency,[11],"inconclusive: 33.1 µM [inhibitor, partial curve]"
same,Potency,[3],"inconclusive: 11.8 µM [cytotoxic, partial curve]"
same,Potency,[15],"inconclusive: 10.6 µM [cytotoxic, partial curve]"
same,Potency,[14],inactive
CCOc1ccc(NC(C)=O)cc1,Potency,[1],inactive
same,Potency,[11],"inconclusive: 48.6 µM [inhibitor, partial curve]"
same,Potency,[5],"inactive and inconclusive: 21.9 µM [cytotoxic, partial curve]"
same,Potency,[8],inactive
same,Potency,[17],"inconclusive: 26.8 µM [activator, single point]"
O=C(Nc1ccccc1)Nc1ccccc1,Potency,[1],"inconclusive: 80.3 µM [cytotoxic, partial curve]"
same,"activity change, positive = activation",[13],active: 28.3%
same,Potency,[3],"inconclusive: 15.6 µM [cytotoxic, full curve]"
same,Potency,[5],"inconclusive: 15.6 µM [cytotoxic, full curve]"
same,Potency,[15],"inconclusive: 15.6 µM [cytotoxic, full curve]"
O=c1[nH]c2ccccc2n1CCCN1CCN(C(c2ccccc2)c2ccccc2)CC1,Potency,[1],"inconclusive: 55.2 µM [cytotoxic, single point]"
same,Potency,[2],active: 23.9 µM
same,Potency,[18],active: 23.9 µM
same,Potency,[5],active: 10.7 µM
same,Potency,[6],"inconclusive: 23.9 µM [falling, partial curve]"
same,Potency,[15],active: 12 µM
same,Potency,[16],active: 23.9 µM
same,Potency,[10],inactive
CCOc1cccc(-n2cc(C(=O)N3CCN(c4cc(C(=O)O)c5ccccc5c4)CC3)nc2-c2ccc(C)cc2)c1,Potency,[1],"inconclusive: 121 µM [cytotoxic, single point]"
same,Potency,[11],inconclusive: 65.5 µM [inhibitor]
same,Potency,[12],"inconclusive: 37.1 µM [falling, partial curve, poor fit]"
c1cc[c]([Bi]([c]2ccccc2)[c]2ccccc2)cc1,Potency,[1],"inconclusive: 11.3 µM [cytotoxic, single point]"
same,Potency,[11],active: 61.1 µM
same,Potency,[3],"inconclusive: 49 µM [cytotoxic, partial curve, poor fit]"
same,Potency,[15],"inconclusive: 49 µM [cytotoxic, partial curve, poor fit]"
same,Potency,[8],inactive
same,Potency,[16],"inconclusive: 61.6 µM [activator, single point]"
same,Potency,[14],"inconclusive: 61.6 µM [activator, single point]"
same,Potency,[12],"inconclusive: 0.871 µM [falling, full curve, poor fit]"
COc1ccc(C(=O)c2ccc(OC)cc2O)c(O)c1,Potency,[1],"inconclusive: 114 µM [cytotoxic, single point]"
same,Potency,[11],inactive
same,Potency,[3],active: 27.7 µM
same,Potency,[4],"inconclusive: 55.3 µM [activator, single point]"
same,Potency,[5],"inconclusive: 44 µM [cytotoxic, partial curve]"
same,Potency,[7],"inconclusive: 55.3 µM [activator, single point]"
same,Potency,[10],"inconclusive: 55.3 µM [activator, single point]"
ON=C1CCCC1,Potency,[1],"inconclusive: 117 µM [cytotoxic, partial curve, poor fit]"
same,Potency,[3],active: 25.4 µM
CC(C)(C)c1cc(CO)cc(C(C)(C)C)c1O,Potency,[1],inconclusive: 115 µM [cytotoxic]
same,Potency,[11],"inconclusive: 55.5 µM [inhibitor, partial curve]"
same,Potency,[3],"inconclusive: 49.9 µM [cytotoxic, partial curve, poor fit]"
same,Potency,[5],"inconclusive: 39.6 µM [cytotoxic, partial curve]"
same,Potency,[15],"inconclusive: 49.9 µM [cytotoxic, partial curve, poor fit]"
same,Potency,[7],inactive
CCCCOC(=O)c1ccc(O)cc1,Potency,[1],"inconclusive: 128 µM [cytotoxic, single point] and inconclusive: 113 µM [cytotoxic, partial curve, poor fit]"
same,Potency,[3],"inconclusive: 19.5 µM [cytotoxic, partial curve] and inconclusive: 21.3 µM [cytotoxic, partial curve]"
same,Potency,[4],"active: 49.6 µM and inconclusive: 61.6 µM [activator, single point]"
same,Potency,[5],"active: 24.8 µM and inconclusive: 17.4 µM [cytotoxic, full curve]"
same,Potency,[15],"active: 24.8 µM and active: 21.9 µM and inconclusive: 23.9 µM [cytotoxic, partial curve, poor fit]"
same,Potency,[7],"inconclusive: 54.9 µM [activator, single point]"
same,Potency,[14],"inconclusive: 55.6 µM [activator, single point] and inconclusive: 54.9 µM [activator, single point]"
same,Potency,[10],"inconclusive: 49.6 µM [activator, single point] and inconclusive: 61.6 µM [activator, single point] and inactive"
O=C(CCCN1CCN(c2ccc(F)cc2)CC1)NC1c2ccccc2CSc2ccccc21 (stereo unspecified),Potency,[1],"inconclusive: 55.2 µM [cytotoxic, single point]"
same,Potency,[2],"inconclusive: 23.9 µM [falling, partial curve]"
same,Potency,[3],active: 19 µM
same,Potency,[18],"inconclusive: 23.9 µM [falling, single point]"
same,Potency,[5],active: 19 µM
same,Potency,[6],"inconclusive: 23.9 µM [falling, partial curve]"
same,Potency,[15],active: 16.9 µM
same,Potency,[8],"inconclusive: 26.8 µM [activator, single point]"
same,Potency,[14],active: 23.9 µM
same,Potency,[10],inactive
CCCCCCCCCCCCCCCCCCO,Potency,[1],inactive
same,Potency,[5],inactive
same,max response,[15],inactive: -1.19%
same,Potency,[8],inactive
